Data: PubChem BioAssay AID588342 (National Center for Advancing Translational Sciences (NCATS), 2011)
Out of some 360,000 compounds screened, about 25,000 (6.9%) were called active. This list was built around the results that the source calls inconclusive (neither active nor inactive); the mix of calls is not that of the screen. The call rests on the fitted dose curve; in most records, active means well fitted inhibition curve with a large enough effect; inconclusive means small, poorly fitted or top-dose-only effect; inactive means flat fitted curve, though single readings scatter. Potencies of inconclusive entries are doubtful fits and often do not repeat.
Further: nearly all actives have a fitted effect of over 55% in size.
Potency means the concentration at half of the fitted maximal effect; tags describe the fitted curve by direction and shape.
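Wherever activity change, negative = inhibition is given: plate controls were vehicle for no effect and reference inhibitor for full effect.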

Each molecule was assayed against Luciferin 4-monooxygenase (Photinus pyralis) (UniProt P08659) (assay: qHTS profiling assay for firefly luciferase inhibitor/activator using purifed enzyme and Km concentrations of substrates (counterscreen for miR-21 project)). Conditions: purified FLuc, luminescence inhibition; activity change, negative = inhibition: at 57.5 µM (top of the series).
Sequence of UniProt P08659 (P08659 whole entry, looked up): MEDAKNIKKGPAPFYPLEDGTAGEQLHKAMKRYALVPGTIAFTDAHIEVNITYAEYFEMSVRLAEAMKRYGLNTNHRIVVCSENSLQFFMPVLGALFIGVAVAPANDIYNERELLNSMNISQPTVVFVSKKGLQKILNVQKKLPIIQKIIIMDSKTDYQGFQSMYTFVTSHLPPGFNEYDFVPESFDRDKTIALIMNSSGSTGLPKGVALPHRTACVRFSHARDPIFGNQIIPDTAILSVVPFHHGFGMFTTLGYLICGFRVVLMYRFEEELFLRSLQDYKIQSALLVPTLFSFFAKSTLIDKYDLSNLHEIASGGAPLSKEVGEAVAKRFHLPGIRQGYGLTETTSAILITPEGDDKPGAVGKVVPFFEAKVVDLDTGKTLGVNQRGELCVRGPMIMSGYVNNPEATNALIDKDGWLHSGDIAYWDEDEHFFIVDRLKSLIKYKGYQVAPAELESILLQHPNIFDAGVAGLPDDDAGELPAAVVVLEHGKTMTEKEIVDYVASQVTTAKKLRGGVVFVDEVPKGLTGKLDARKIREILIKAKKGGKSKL
In short: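 Purified P. pyralis luciferase, 10 nM final, with Km-level 10 uM D-luciferin and 10 uM ATP in 50 mM Tris acetate pH 7.5, 10 mM Mg acetate, 0.01% Tween-20, 0.05% BSA; 6-point qHTS titration about 60 µM downward; luminescence read.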
`CCN1C(=O)N/C(=C/c2cc(C)n(Cc3ccccc3)c2C)C1=O` was tested, and the Potency was active: 3.38 µM.
For `CC1CCc2sc(C(=O)NNS(=O)(=O)c3ccc(F)c(F)c3F)cc2C1` (centres undefined), the Potency was active: 10.7 µM.
In the case of `Cc1ccc(CC(=O)NCc2nc(-c3cccc(C)c3)no2)cc1`, the “activity change, negative = inhibition” value is reported as inactive: -2.69%.
For `O=C(CCc1nnc(Cc2c[nH]c3ccccc23)o1)NCC1CC12CCCCC2` (centres undefined), the “activity change, negative = inhibition” value was inactive: -8.16%.
With `O=C(COC(=O)Cc1ccc(-c2ccccc2)cc1)NCc1ccc(F)cc1` the Potency was inconclusive: 7.57 µM [inhibitor, partial curve, poor fit].
With `Cc1nnc(N2CCC(C(=O)NCc3cccc(Cl)c3)CC2)c2nn(-c3ccccc3)c(C)c12` the Potency was inconclusive: 13.5 µM [inhibitor, partial curve, poor fit].
In the case of `O=C(COc1ccc(Cl)cc1)Nc1ccc(Cl)cn1`, the Potency is reported as active: 12 µM.
`Cc1cccc(-n2cc(CN3CCCN(C=O)CC3)c(-c3cccc(F)c3)n2)c1` was tested, and the Potency was active: 13.5 µM.
With `COc1cccc(NS(=O)(=O)c2ccc3[nH]cc(C(=O)N(C)Cc4ccco4)c(=O)c3c2)c1` the Potency was inconclusive: 10.7 µM [inhibitor, partial curve, poor fit].
`Cc1cccc(NC(=O)/C(C#N)=C/c2cccc([N+](=O)[O-])c2)n1` was tested, and the Potency was inconclusive: 21.3 µM [inhibitor, single point].
For `CCOc1cc(/C=N/NC(=O)c2cc(C3CC3)[nH]n2)ccc1O`, the Potency was inconclusive: 37.9 µM [inhibitor, partial curve, poor fit].
With `CC(C)c1ccc(NC(=O)CSC2=Nc3ccccc3C3=NC(CC(=O)NCc4ccco4)C(=O)N23)cc1` (centres undefined) the “activity change, negative = inhibition” value was inactive: -7.52%.
For `O=C(CSc1nnc(SCc2ccccc2)s1)N/N=C/C=C\c1ccco1`, the Potency was inconclusive: 7.57 µM [inhibitor, partial curve].
`Cn1c(=O)c2c(c3ccccc31)OC(=O)CC2c1ccccc1` (centres undefined) was tested, and the Potency was inconclusive: 37.9 µM [inhibitor, partial curve, poor fit].
In the case of `COc1ccc(/C=N/NC(=O)CCSc2nc3ccccc3s2)cc1`, the Potency is reported as inconclusive: 26.9 µM [inhibitor, partial curve, poor fit].
In the case of `Nc1c(C(=O)NCc2ccco2)nnn1-c1ccccc1`, the Potency is reported as inconclusive: 16.9 µM [inhibitor, partial curve].
`c1ccc(-c2noc(-c3ccc4ccccc4c3)n2)cc1` was tested, and the Potency was active: 0.269 µM.
`O=C(CSCc1ccc(Cl)cc1Cl)Nc1c[nH]c(=O)[nH]c1=O` was tested, and the “activity change, negative = inhibition” value was inactive: 8.35%.
For `COC(=O)Cc1c(C)c2ccc(OCc3nn[nH]n3)c(C)c2oc1=O`, the Potency was inconclusive: 30.1 µM [inhibitor, single point].
In the case of `CCOC(=O)c1cnc2c(C)cc(C)cc2c1Nc1ccc(N2CCOCC2)cc1`, the “activity change, negative = inhibition” value is reported as inactive: -12.7%.
For `COc1ccc(C(=O)Nc2ccc3c(c2)N(C)C(=O)c2ccccc2S3)cc1OC`, the “activity change, negative = inhibition” value was inactive: 5.6%.
For `CCNc1oc(COc2ccccc2F)nc1C#N`, the Potency was inconclusive: 23.9 µM [inhibitor, single point].
In the case of `Cc1cccc(NC(=S)N/N=C(\c2ccccc2)C(C)C)c1`, the Potency is reported as inconclusive: 19 µM [inhibitor, partial curve].
For `CCn1c(SCC(=O)Nc2ccc(OC)cc2OC)nc2nc3c(cc2c1=O)COC(C)(C)C3`, the “activity change, negative = inhibition” value was inactive: 2.67%.
For `Cc1oc(-c2ccc(Cl)cc2)nc1CN1CCCC(C(=O)NCc2ccc(Cl)cc2)C1` (centres undefined), the Potency was inconclusive: 21.3 µM [inhibitor, partial curve, poor fit].
`CCCOc1ccccc1C(=O)Nc1nc2c(s1)CCCC2` was tested, and the Potency was inconclusive: 30.1 µM [inhibitor, single point].
`CN(Cc1ccccc1)C(=O)c1ccc2c(c1)N(Cc1ccc(Cl)cc1)C(=O)c1ccccc1S2=O` (centres undefined) was tested, and the “activity change, negative = inhibition” value was inactive: 3.34%.
For `Cc1ccccc1CSCCNC(=O)Nc1ccccc1`, the Potency was inconclusive: 26.9 µM [inhibitor, partial curve, poor fit].
In the case of `COc1ccc(NC(=O)c2ccc(-c3cccc(Cl)c3C)o2)cc1`, the Potency is reported as inconclusive: 10.7 µM [inhibitor, partial curve].
In the case of `O=C(CSc1ccccc1)Nc1ccncc1`, the “activity change, negative = inhibition” value is reported as inactive: -15.6%.
With `O=[N+]([O-])c1ccc2ccn(C3OCC(O)C(O)C3O)c2c1` (centres undefined) the Potency was inconclusive: 0.0135 µM [inhibitor, partial curve, poor fit].
With `CC(NC(=O)Cc1ccc(NC(=O)N2CCCCc3ccccc32)cc1)c1ccccc1` (centres undefined) the Potency was inconclusive: 13.5 µM [inhibitor, partial curve, poor fit].
In the case of `CCOc1ccc2ccccc2c1C(=O)NCC(c1ccc(N(C)C)cc1)N(C)C` (centres undefined), the “activity change, negative = inhibition” value is reported as inactive: 1.44%.
`O=C(Nc1cccn(Cc2cccc(F)c2)c1=O)NC1CCCCC1` was tested, and the Potency was inconclusive: 23.9 µM [inhibitor, single point].
In the case of `CN(C)C(=O)CCC(=O)N1CCCC(C(=O)c2ccc3c4c(cccc24)CC3)C1` (centres undefined), the Potency is reported as inconclusive: 37.9 µM [inhibitor, partial curve, poor fit].
In the case of `Cc1cc(C(=O)C(C)OC(=O)c2cnccn2)c(C)n1-c1ccccc1` (centres undefined), the Potency is reported as inconclusive: 19 µM [inhibitor, partial curve].
`COC(=O)[C@]1(Cc2ccccc2)N[C@H](c2ccc(-c3ccc4c(c3)OCO4)cc2)[C@@H]2C(=O)N(C)C(=O)[C@@H]21` was tested, and the Potency was inconclusive: 26.9 µM [inhibitor, partial curve, poor fit].
With `COc1ccc(/C=C/C(=O)Nc2ccccc2C(=O)N2CCCC2)cc1` the Potency was active: 9.53 µM.
In the case of `CCOC(=O)C(C)NC(=O)c1cc2c(=O)[nH]c3ccc(C)cc3c2s1` (centres undefined), the “activity change, negative = inhibition” value is reported as inactive: 2.52%.
In the case of `Cc1cc(-c2cccs2)c2c(N)c(C(=O)c3ccc4c(c3)OCO4)sc2n1`, the Potency is reported as inconclusive: 30.1 µM [inhibitor, partial curve, poor fit].
With `C/C(=N\OCc1ccccc1C#N)c1cc2ccccc2o1` the Potency was inconclusive: 26.9 µM [inhibitor, partial curve].
`N/C(=N\OC(=O)c1cc(Cl)ccc1Cl)c1cccnc1` was tested, and the Potency was active: 9.53 µM.
With `O=C(NNC(=S)NCc1ccccc1)c1ccc(Br)o1` the Potency was inconclusive: 15.1 µM [inhibitor, partial curve, poor fit].
`CCc1nccn1-c1cc(C(C)(C)C)nc2c(-c3ccc(Cl)cc3)cnn12` was tested, and the Potency was inconclusive: 26.9 µM [inhibitor, single point].
With `COc1ccc(N2CCN(C(=O)COC(=O)c3ccc(-n4nc(C)cc4C)cc3)CC2)cc1` the “activity change, negative = inhibition” value was inactive: 3.05%.
With `Cc1ccc(/C=C/C(=O)c2ccc([N+](=O)[O-])o2)cc1` the Potency was inconclusive: 4.26 µM [inhibitor, partial curve, poor fit].
For `O=C(Nc1sc2c(c1-c1nc3ccccc3[nH]1)CCCC2)C1CCCC1`, the Potency was inconclusive: 21.3 µM [inhibitor, partial curve, poor fit].
`CCN(CC)c1ccc(N=Nc2ncn[nH]2)cc1` was tested, and the Potency was active: 12 µM.
`C=CCNc1ncnc2c1cnn2-c1ccc(C)cc1C` was tested, and the Potency was inconclusive: 23.9 µM [inhibitor, partial curve, poor fit].
`CCOC(=O)C1(Cc2ccc(OC)cc2)CCN(C(=O)CN2CCCCC2=O)CC1` was tested, and the Potency was inconclusive: 37.9 µM [inhibitor, partial curve, poor fit].
With `COc1cccc(/C=N/NC(=O)c2cccc(N3CCCC3=O)c2)c1` the Potency was active: 9.53 µM.
For `COc1ccc(NC(=O)c2cccs2)cn1`, the Potency was inconclusive: 37.9 µM [inhibitor, partial curve, poor fit].
For `Cn1cc(S(=O)(=O)Nc2ccc3c(c2)OCCO3)cn1`, the Potency was inconclusive: 30.1 µM [inhibitor, single point].
With `O=C(COC(=O)c1ccccc1Nc1ccc(SC(F)F)cc1)NCc1ccco1` the Potency was inconclusive: 16.9 µM [inhibitor, partial curve].
With `Cc1ccc(/C=C2/SC(=S)N(c3ccc(S(=O)(=O)Nc4nccs4)cc3)C2=O)cc1` the Potency was inconclusive: 26.9 µM [inhibitor, single point].
`O=C(COC(=O)c1ccco1)Nc1nc2ccccc2s1` was tested, and the Potency was inconclusive: 37.9 µM [inhibitor, single point].
`CNc1oc(-c2ccc(Cl)cc2)nc1C#N` was tested, and the Potency was active: 10.7 µM.
With `Cc1ccc(NC(=O)c2ccc(OC(F)(F)F)cc2)cc1S(=O)(=O)N(C)C` the Potency was inconclusive: 37.9 µM [inhibitor, single point].
`COC(=O)c1sc(-c2ccccc2)cc1NC(=O)C1CC1` was tested, and the Potency was inconclusive: 30.1 µM [inhibitor, partial curve, poor fit].
For `O=C(Nc1ccc(F)cc1)c1cccc(N2CCCS2(=O)=O)c1`, the Potency was inconclusive: 37.9 µM [inhibitor, partial curve, poor fit].
For `N=C1SCC(=O)N1c1ncc(Cc2ccc(F)cc2)s1`, the Potency was inconclusive: 26.9 µM [inhibitor, single point].
With `COc1ccc(C2=CC(=O)C[C@H](c3ccc(F)cc3)C2)cc1F` the “activity change, negative = inhibition” value was inactive: -9.57%.
For `Cc1ccc(NC(=O)C/C(N)=N/OC(=O)Nc2cccc(C)c2)cc1`, the Potency was inconclusive: 30.1 µM [inhibitor, partial curve, poor fit].
`COc1cccc(-c2nc(SC(C(C)=O)C(=O)N(C)C)c3c(=O)n(C)c(=O)n(C)c3n2)c1` (centres undefined) was tested, and the “activity change, negative = inhibition” value was inactive: 0.0437%.
`COc1ccc(C(=O)CC(=O)c2ccccc2O)cc1` was tested, and the Potency was active: 12 µM.
In the case of `Cc1[nH]c2ccc(C(=O)N3CCN(C)CC3)cc2c1C`, the Potency is reported as inconclusive: 37.9 µM [inhibitor, single point].
`Cc1c(C(=O)N2CCCCC2)oc2ccc(Br)cc12` was tested, and the Potency was active: 21.3 µM.
In the case of `O=C(OCCCCOC(=O)c1ccccc1)c1ccccc1`, the “activity change, negative = inhibition” value is reported as inactive: -0.5%.
`Cc1ccc(S(=O)(=O)N2CCCc3cc(NC(=O)c4ccc(C(F)(F)F)cc4)ccc32)cc1` was tested, and the “activity change, negative = inhibition” value was inactive: -7.67%.
